Measured values taken from PMC4336329 (PLoS ONE, 2015).
Screen size: about 310,000 compounds; about 14,000 (4.5%) showed an effect of 50% or more. The effect is printed as a negative number. Some of the results follow.

Molecular target: human ether-à-go-go-related gene (hERG) potassium channel (human, UniProt Q12809)
Assay: primary screen, population patch clamp on CHO cells stably expressing hERG
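Note: peak tail current of the secondary pulse compared with the same well before compound.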

human ether-à-go-go-related gene (hERG) potassium channel, sequence (Q12809 whole entry, looked up): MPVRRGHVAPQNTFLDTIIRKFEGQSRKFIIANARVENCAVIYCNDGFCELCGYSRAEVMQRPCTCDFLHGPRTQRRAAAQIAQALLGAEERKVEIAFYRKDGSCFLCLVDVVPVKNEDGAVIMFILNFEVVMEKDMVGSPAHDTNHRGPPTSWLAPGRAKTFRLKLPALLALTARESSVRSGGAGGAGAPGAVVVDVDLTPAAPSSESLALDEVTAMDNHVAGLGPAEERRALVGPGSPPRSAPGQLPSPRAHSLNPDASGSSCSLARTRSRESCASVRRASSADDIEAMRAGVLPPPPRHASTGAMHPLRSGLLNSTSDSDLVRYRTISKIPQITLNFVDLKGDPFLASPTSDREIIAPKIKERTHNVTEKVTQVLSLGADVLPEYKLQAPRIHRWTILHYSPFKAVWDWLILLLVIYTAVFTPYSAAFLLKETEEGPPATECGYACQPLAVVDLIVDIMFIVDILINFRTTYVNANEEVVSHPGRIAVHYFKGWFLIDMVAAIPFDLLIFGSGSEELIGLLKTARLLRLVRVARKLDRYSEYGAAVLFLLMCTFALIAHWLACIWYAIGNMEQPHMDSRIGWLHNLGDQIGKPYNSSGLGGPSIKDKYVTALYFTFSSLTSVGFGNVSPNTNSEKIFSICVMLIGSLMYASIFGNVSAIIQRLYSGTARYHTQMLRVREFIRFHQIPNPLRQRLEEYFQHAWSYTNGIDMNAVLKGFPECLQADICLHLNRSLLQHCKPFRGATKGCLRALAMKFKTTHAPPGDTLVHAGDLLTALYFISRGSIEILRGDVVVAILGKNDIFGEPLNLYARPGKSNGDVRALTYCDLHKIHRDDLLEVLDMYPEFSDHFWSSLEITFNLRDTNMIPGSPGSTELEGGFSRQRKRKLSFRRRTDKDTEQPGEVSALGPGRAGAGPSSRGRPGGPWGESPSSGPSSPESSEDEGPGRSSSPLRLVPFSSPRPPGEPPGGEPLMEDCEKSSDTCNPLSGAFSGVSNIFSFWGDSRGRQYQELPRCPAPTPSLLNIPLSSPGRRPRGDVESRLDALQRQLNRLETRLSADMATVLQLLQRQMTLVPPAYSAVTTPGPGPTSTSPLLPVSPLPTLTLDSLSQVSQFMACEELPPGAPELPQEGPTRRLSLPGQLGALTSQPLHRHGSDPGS

Row | Structure (SMILES) | hERG current change (%, negative = inhibition) at 10uM [%]
1 | COc1ccc(CCC(=O)OCC(=O)c2cccc(OC)c2)cc1 | 6.94
2 | CCn1cnc2c1c(=O)n(CC(=O)O)c(=O)n2Cc1ccccc1 | 28
3 | Cc1[nH]c2ccc(C(=O)OC(C)C(=O)NC3(C#N)CCCCC3)cc2c1C (stereo not drawn) | -0.981
4 | Cc1ccc(NC(=O)c2c(C(F)(F)F)nn(C)c2Cl)cc1C | 10.8
5 | CCOc1ccccc1NC(=O)C1CCCN(S(=O)(=O)c2cccc3nsnc23)C1 (stereo not drawn) | 6.28
6 | O=C(Cc1ccc(Cl)cc1Cl)OCC(=O)N1CCCCC1 | 17
7 | Cc1cccc(C(=O)N[C@H](C(=O)Nc2nc3ccccc3[nH]2)C(C)C)c1 | 3.32
8 | O=C(O)c1ccc2c(=O)n3c(nc2c1)/C(=C/c1ccc(OC(F)F)cc1OC(F)F)CC3 | 6.46
9 | CCc1ccc(NC(=O)CSc2nc3ccsc3c(=O)n2CCCCCC(=O)O)cc1 | 37.1
10 | Cc1ccc2c(c1C)OC(=O)CC2c1ccccc1 (stereo not drawn) | 1.64
11 | COc1cc(Cl)c(S(=O)(=O)NCc2cccnc2)cc1Cl | 2.8
12 | CCOC(=O)C1=C(C)NC(=S)N(C(C)=O)C1c1ccccc1 (stereo not drawn) | -14.8
13 | CCCCC(=O)N/N=C/c1ccc(-c2ccc([N+](=O)[O-])cc2)o1 | -21.9
14 | CCC(Nc1nc(-c2ccccc2)nc2ccccc12)C(=O)O.Cl (stereo not drawn) | -3.71
15 | CCOC(=O)C(C)Oc1cccc2c(=O)n(CC(=O)NCc3ccco3)ccc12 (stereo not drawn) | -10.2
16 | Cc1cccc(N2CCN(c3nnc(C(F)(F)F)s3)CC2)c1 | 11.2
17 | CC1=CN2C(=N)/C(=C/c3ccco3)C(=O)N=C2S1 | 29.4
18 | CCN(CC)CCn1c(=S)[nH]c2cc(C(=O)NCc3ccccc3Cl)ccc2c1=O | -76.1
19 | CCc1cc(-c2n[nH]c(=S)n2N)n(C)n1 | 2.67
20 | CCOCCCNCC(=O)N1CCN(S(=O)(=O)c2ccc(C)cc2)CC1.O=C(O)C(=O)O | -15.8
21 | Nc1cnnc(N/N=C\c2ccccc2)c1Cl | -8.3
22 | Cc1cc(C(=O)c2ccc(Cl)cc2)c(NC(=O)CCl)s1 | 1.38
23 | CCN(CCO)C(=O)CC1C(=O)NCCN1Cc1c(F)cccc1Cl (stereo not drawn) | 25.8

Row | Structure (SMILES) | hERG current change (%, negative = inhibition) at 10uM [%]
24 | O=C(O)CC1S/C(=N/N=C/C=C/c2ccccc2)NC1=O (stereo not drawn) | 0.632
25 | O=C(Nc1ccccc1Cl)c1cnccn1 | 2.9
26 | O=C(Cc1ccc([N+](=O)[O-])cc1)Nc1nccs1 | 0.126
27 | Cc1c(CCC(=O)N2CCC(C(=O)O)(c3ccccc3)CC2)c(=O)oc2cc3oc4c(c3cc12)CCCC4 | 0.494
28 | C/C(=N\NC(=O)c1nnn(-c2nonc2N)c1C)c1ccc(-c2ccccc2)cc1 | 19
29 | O=C(c1ccc(COc2ccccc2Br)o1)N1CCCCCC1 | -14.5
30 | CC(=O)Nc1ccc(N/C=C(\C=O)c2nc3ccccc3o2)cc1 | 22.8
31 | CC(C)(C)c1ccc(-n2ncc3c2CCCC3NC(=O)CN2CCOC2=O)cc1 (stereo not drawn) | 0.93
32 | CCCn1nnnc1NCc1ccccc1OCc1ccc(F)cc1 | -16
33 | O=C([O-])c1cc(=O)[nH]c2ccc(S(=O)(=O)Nc3ccc(F)cc3)cc12.[K+] | 23.5
34 | COc1ccc2c(COC(=O)CCS(=O)(=O)c3ccc(C)cc3)cc(=O)oc2c1 | -14.1
35 | CCCCNC(=O)c1cccc2c(=O)c(C)c(-c3ccccc3)oc12 | -23.7
36 | CC(C(=O)Nc1cccc([N+](=O)[O-])c1)N1CCN(C/C=C/c2ccccc2)CC1 (stereo not drawn) | -75.6
37 | COc1ccccc1-c1oc2ccccc2c1-c1ccc2c(c1)OCO2 | 16.7
38 | Cc1ccc(NC(=O)Nc2cc(S(=O)(=O)N(C)C)ccc2C)cc1 | 0.631
39 | CSCc1cc(N2CCOCC2)nc(SCc2ccc(Cl)cc2Cl)n1 | 2.63
40 | COC(=O)c1ccccc1OCCCCN1CC(C)OC(C)C1.O=C(O)C(=O)O (stereo not drawn) | -7.3
41 | CC(C)Cc1nn2c(N)c(/C=C3\C=Nc4ccccc43)c(=O)nc2s1 | 15.8
42 | O=C(Nc1ccccc1)/C(=C\c1ccc(F)cc1)NC(=O)c1ccco1 | 3.87
43 | O=C(O)CSc1nccn1-c1cccc(Cl)c1 | 11.1
44 | CCC(=O)N1CCCN(S(=O)(=O)c2ccc(C)cc2)C1c1ccc(OC)cc1 (stereo not drawn) | -23.1
45 | Cc1nc(C)c(-c2csc(N)n2)s1 | -3.5
46 | O=C(CN1CCN(C(=O)CNC(=O)c2ccc(N3CCCC3=O)cc2)CC1)Nc1ccccc1Cl | -0.992

Row | Structure (SMILES) | hERG current change (%, negative = inhibition) at 10uM [%]
47 | COc1ccc(-c2nc3c(-c4ccc(F)cc4)cnn3cc2C)cc1F | 9.86
48 | O=C(/C=C/c1cccc(Br)c1)N1CCN(c2ccccn2)CC1 | -45.2
49 | CCOC(=O)NNc1ccc(C(F)(F)F)cn1 | 16.3
50 | CC1=C(c2ccc(F)cc2)[N+](=O)C(C)(C)N1[O-] | 17.7
51 | Cc1oc2ccc(OCc3c(F)cccc3Cl)cc2c1C(=O)O | 18.5
52 | COc1ccc(-c2csc3ncnc(N4CCN(S(=O)(=O)c5ccc(Cl)s5)CC4)c23)cc1 | -6.02
53 | O=C(/C=C/c1cccc([N+](=O)[O-])c1)c1ccc2c(c1)OCCO2 | 3.36
54 | O=C1CC(c2ccc(S(=O)(=O)NCCOc3ccccc3)cc2)CN1 (stereo not drawn) | 9.42
55 | CCN(CC)S(=O)(=O)c1cccc(NC(=O)c2ccc(Br)cc2)c1 | 4.07
56 | COc1ccc(CCNC(=O)CS(=O)Cc2nc(-c3ccccc3Cl)oc2C)cc1OC (stereo not drawn) | -4.34
57 | COc1ccc(-n2ncc3c(=O)n(Cc4c(F)cccc4Cl)cnc32)cc1 | 16.3
58 | CSc1cccc(CN2CCCC(CO)(Cc3cccc(Cl)c3)C2)c1 (stereo not drawn) | -29
59 | Cc1cc(Br)cn2ccnc12 | -6.51
60 | O=c1[nH]c(=S)[nH]c2c1C(c1ccc(Br)cc1)c1c([nH]c(=S)[nH]c1=O)O2 | 16.5
61 | COc1cccc(C(=O)O/N=C(\N)CS(=O)(=O)c2ccccc2)c1 | 11
62 | Cc1ccc(NC(=O)COC(=O)c2ccco2)cc1 | -2.75
63 | Cc1cc(SCC#N)n2nc(C)c(-c3ccc(Cl)cc3)c2n1 | 24.9
64 | COc1ccc(Cc2nnc(NCCO)[nH]c2=O)cc1 | 16.5
65 | CCCN(CC(=O)Nc1ccc(NC(C)=O)cc1)CC(=O)Nc1ccc(F)c(F)c1F | 9.97
66 | C#Cc1ccc(CN2CCN(CCc3ccccc3)C(CCO)C2)cc1 (stereo not drawn) | -58.8
67 | O=[N+]([O-])c1cc2c(cc1/C=N/n1c(-c3ccccc3)n[nH]c1=S)OCO2 | 10.8
68 | CCOC(=O)C1=C(N)Oc2cc(C)oc(=O)c2C12C(=O)N1c3c(cccc32)C(C)CC1(C)C (stereo not drawn) | -7.18
69 | Cc1ccccc1NC1=C(Cl)C(=O)OC1OC(C)C (stereo not drawn) | 7.51

Row | Structure (SMILES) | hERG current change (%, negative = inhibition) at 10uM [%]
70 | COc1ccc(/C=C2/N=C(SC)NC2=O)cc1OC | 6.4
71 | COc1ccc(S(=O)(=O)N(C)CC(=O)Nc2c(F)cccc2F)cc1 | 5.53
72 | COc1cccc(COc2ccc(N(C)S(=O)(=O)c3ccccc3)cc2)c1 | 3.08
73 | Cc1ccsc1C1Nc2ccc3ncccc3c2C2=C1C(=O)CC(C)(C)C2 (stereo not drawn) | -4.2
74 | Cc1cccc(NC(=O)CCSc2nncn2C)c1 | 27.4
75 | O=C(NNc1c2ccccc2nc2ccccc12)c1ccccc1Cl | 2.94
76 | CCc1ccccc1NC(=O)Cn1nc(C)n2cccc2c1=O | 1.74
77 | COC(=O)c1c(C)[nH]c(C(=O)COC(=O)Cc2ccc3c(c2)OCCO3)c1C | -24.3
78 | CN(C(=O)CSc1nnc(-c2cccs2)o1)C1CCS(=O)(=O)C1 (stereo not drawn) | 4.67
79 | O=C(NCCCC1CCCC1)C1CCC(=O)N(Cc2ccc(Cl)cc2)C1 (stereo not drawn) | -61.4
80 | COc1ccc(CCNc2nc(-c3ccc(NC(C)=O)cc3)cs2)cc1OC | 5.69
81 | CC(Nc1nc(-c2ccccc2)nc2ccccc12)c1ccccc1 (stereo not drawn) | 3.47
82 | c1ccc(-c2nnc(SCCC3OCCCO3)o2)cc1 | 10.7
83 | COc1cccc(NC(=O)CN2C(=O)C3(OCCCO3)c3ccccc32)c1 | 0.626
84 | Cc1ccc(NC(=O)C2CCCN(S(=O)(=O)c3cnc[nH]3)C2)cc1C (stereo not drawn) | -4.88
85 | Clc1ccc(OCc2nc3ccccc3[nH]2)cc1 | 20.1
86 | CC(C)(C)C1CCC(OC(=O)c2ccncc2)CC1 (stereo not drawn) | -6.89
87 | Fc1ccccc1CN1CCN(c2ccc(Cl)cc2)CC1 | 1.71
88 | COc1ccc(COC(=O)c2nc3nc(C)cc(C)n3n2)cc1F | -3.65
89 | O=C(N/N=C/c1ccc(-c2cccc([N+](=O)[O-])c2)o1)c1cccs1 | 35.9
90 | CC(=O)c1c(O)cc(C)n(-c2ccc(F)cc2)c1=O | 6.67
